Test results: patent publication US3980522A, “Production of a new antibiotic, calvatic acid” (Zaidan Hojin Biseibutsu Kagaku Kenkyu Kai, priority 1973, dated 1976)
≈ marks a conversion by molar mass, not a printed value.

System: Bacillus anthracis
Test: microbe, parasite or virus in culture
Format: cell-based

| Compound | MIC [µg/mL] |
| --- | --- |
| COC(=O)c1ccc([N+]([O-])=NC#N)cc1 [calvatic acid methyl ester] | < 0.78 |
| N#CN=[N+]([O-])c1ccc(C(=O)O)cc1 [calvatic acid, p-carboxyphenylazoxycarbonitrile] | 6.25 (≈ 32.7 µM) |
